Drawing on patent publication US20150150893A1, “ANDROGRAPHOLIDE ANALOGS AND THEIR USE FOR MEDICATION” (LIAONING LIFENG SCIENTIFIC & TECHNOLOGY DEVELOPMENT COMPANY …, priority 2012, published 2015), this text covers anti-tumor efficacy for five compounds.

The test system of the assay is S180 sarcoma. On the set-up: species or system Kunming mice. The conditions noted are these: mouse, in vivo, iv.
`C=C1CCC2[C@](C)(CC[C@@H](O)[C@@]2(C)CO)C1/C=C/C1=CCOC1=O` (some centres unmarked) [Example 1, 11,12-dedihydro-14-deoxyandrographolide]: the anti-tumor efficacy entry is reported as “statistically significant”.

Turning to `C=C1CCC2C(C)(CO)C(O)CCC2(C)C1CC(C[N+](=O)[O-])C1=CCOC1=O` (centres unmarked) [Example 11, 12-nitromethyl-14-deoxyandrographolide], the anti-tumor efficacy result is reported as “statistically significant”.

With `C=C1CCC2C(C)(CO)C(O)CCC2(C)C1/C=C/C1=CC(=C\c2ccoc2)/OC1=O` (centres unmarked) [Example 39, 11,12-dedihydro-14-deoxy-(E)-15-(furan-3-ylmethylene) andrographolide], the anti-tumor efficacy result is reported as “statistically significant”.

Turning to `CN1CCN(C(=O)CCC(=O)OC2CCC3(C)C4CC(C5=CCOC5=O)C=C4CCC3C2(C)CO)CC1` (centres unmarked) [Example 108], the anti-tumor efficacy result is “statistically significant”.

In the case of `CC(NC1CC2[C@](C)(CC[C@@H](O)[C@@]2(C)CO)C(/C=C/C2=CC(=C\c3ccc(N(C)C)cc3)/OC2=O)C12CO2)C(=O)NC1=NCC=N1` (some centres unmarked) [Example 210], the anti-tumor efficacy result is “statistically significant”.
